In PubChem BioAssay AID2675 (National Center for Advancing Translational Sciences (NCATS), 2010):
Out of some 280,000 compounds screened, about 100 (0.036%) were called active. The inconclusive results got no clear call from the source; some entries with a clear call stand among them for comparison. Calls follow the shape of the dose curve; as a rule, active = well fitted inhibition curve with a large enough effect in the signal ratio, with a control signal flat (not every such curve was filed as active); inconclusive = small, poorly fitted or top-dose-only effect, or effect the other way, or a change in a side signal; inactive = no such curve, though single readings can be large or run the other way; the % refers to the signal ratio. Potencies beside an inconclusive call are fits to weak or partial responses and may not hold up. “Side channel” marks fits to a control or component signal instead of the main read-out.

target: Muscleblind-like protein 1 (Homo sapiens) (UniProt Q9NR56); experiment: qHTS Assay for Inhibitors of MBNL1-poly(CUG) RNA binding; settings: TR-FRET MBNL1-His/biotin-(CUG)12 binding, 665/545 ratio; activity change, negative = inhibition: at 57.5 µM (top of the series)
Sequence of UniProt Q9NR56 (Q9NR56 whole entry, looked up): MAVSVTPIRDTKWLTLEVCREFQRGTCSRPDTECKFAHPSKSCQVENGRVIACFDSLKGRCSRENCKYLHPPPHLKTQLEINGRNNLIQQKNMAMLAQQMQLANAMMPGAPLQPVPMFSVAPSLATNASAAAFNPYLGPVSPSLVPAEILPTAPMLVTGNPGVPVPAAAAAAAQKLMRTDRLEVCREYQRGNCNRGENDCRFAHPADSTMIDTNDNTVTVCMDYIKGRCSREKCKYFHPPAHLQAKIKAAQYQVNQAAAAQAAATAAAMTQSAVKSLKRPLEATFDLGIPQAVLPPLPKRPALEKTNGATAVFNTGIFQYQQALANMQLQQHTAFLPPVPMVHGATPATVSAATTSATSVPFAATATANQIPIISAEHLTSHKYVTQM
Method in brief: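 Ratiometric TR-FRET (665 over 545 nm, excitation 340 nm) tracks disruption of MBNL1-His/biotin-(CUG)12 complex after 60 min at room temperature, with compounds at 92 nM to 58 uM final.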
% is scaled to controls: 0 for no effect and ±100 for the full control effect; potency is read from the fitted curve at half-maximal effect; tags tell the direction and shape of the fitted curve or compound fluorescence and quenching.

Row | Compound | Potency | activity change, negative = inhibition
1 | CCN1CCN(c2nc3c(C)cccn3c(=O)c2/C=C(\C#N)C(=O)NCCOC)CC1 | inconclusive: 10 µM [quencher, side channel, partial curve, poor fit] | 
2 | O=C(Nc1ccncc1)C1CCCN(S(=O)(=O)c2cccc3cccnc23)C1 (configuration not stated) | inconclusive: 8.91 µM [quencher, side channel, single point] | 
3 | CC(=O)NN1C(=O)c2ccccc2NC1c1ccc([N+](=O)[O-])o1 (configuration not stated) | inconclusive: 20 µM [quencher, side channel, partial curve] | 
4 | CN(C(=O)/C=C/c1ccc([N+](=O)[O-])s1)c1ccccc1 | inconclusive: 15.8 µM [quencher, side channel, partial curve] | 
5 | CC12CC(c3ccccc3O1)C(/C(N)=N/NC(=O)c1ccc(F)cc1)C(=O)N2 (configuration not stated) |  | inactive: 2.58%
6 | CC(=O)N(C)c1ccc(NC(=S)NC(=O)/C=C/c2ccco2)cc1 | inconclusive: 8.91 µM [quencher, side channel, full curve] | 
7 | O=c1c2c3nc4ccccc4nc3n(/N=C/c3ccccn3)c2ncn1-c1ccccc1 | inconclusive: 3.16 µM [quencher, side channel, full curve] | 
8 | CCN(c1cccc(C)c1)S(=O)(=O)c1cccc2nsnc12 | inconclusive: 8.91 µM [quencher, side channel, partial curve] | 
9 | CN1CCc2c(sc3c2c(=O)n(-c2ccccc2)c2nnc(SCc4ccccc4)n32)C1 | inconclusive: 15.8 µM [quencher, side channel, partial curve] | 
10 | O=C(CCCCCN1C(=O)c2cccc3cccc(c23)C1=O)NCc1ccco1 | inconclusive: 11.2 µM [quencher, side channel, partial curve, poor fit] | 
11 | Cc1ccc(OCCN2CCCCCC2)c(C)c1 | inconclusive: 5.01 µM [quencher, side channel, single point] | 
12 | [N-]=[N+]=CC(=O)c1ccnc(C(=O)C=[N+]=[N-])c1 | inconclusive: 15.8 µM [quencher, side channel, partial curve] | 
13 | Cc1ccc(/C=N/Nc2ccc(C(=O)O)cc2)o1 | inconclusive: 31.6 µM [quencher, side channel, partial curve, poor fit] | 
14 | O=c1cc(CN2CCN(Cc3ccc(F)cc3)C(CCO)C2)[nH]c2ccccc12 (configuration not stated) |  | inactive: -1.34%
15 | C=CCn1c(Cc2csc(N)n2)nnc1SCC(=O)OCC |  | inactive: -3%
16 | CCOC(=O)C1=C(C)N=C2SC(C)C(=O)N2C1c1ccccc1 (configuration not stated) |  | inactive: 3.65%
17 | S=c1[nH]nc(-c2ccccc2)n1/N=C/c1c[nH]c2ccccc12 | inconclusive: 7.94 µM [fluorescent, side channel, single point] | 
